Assay results reported in the BET-seq Pho4 binding data (Le et al. 2018).
This is one part of the list. These are noisy estimates, calculated here from bound and input reads.

target: T1, Pho4 (S. cerevisiae) (UniProt P07270); assay: relative binding free energy (BET-seq); higher = weaker binding; details: reference: library average
T1 sequence: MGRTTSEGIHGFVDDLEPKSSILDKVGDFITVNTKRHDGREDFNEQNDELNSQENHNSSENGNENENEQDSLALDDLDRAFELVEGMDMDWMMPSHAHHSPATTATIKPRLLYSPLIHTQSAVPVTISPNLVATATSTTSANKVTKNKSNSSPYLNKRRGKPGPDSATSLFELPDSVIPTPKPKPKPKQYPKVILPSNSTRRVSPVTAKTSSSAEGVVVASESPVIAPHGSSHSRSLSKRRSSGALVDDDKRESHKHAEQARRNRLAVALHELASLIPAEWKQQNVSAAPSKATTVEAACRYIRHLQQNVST

| Sequence | relative binding free energy [kcal/mol] |
| --- | --- |
| TGTGGCACGTGGACTT | -0.18 |
| TAGGCCACGTGGCGGT | -0.09 |
| TTCGGCACGTGGGGTT | -0.13 |
| AGTTTCACGTGATACG | 0.13 |
| CTGGGCACGTGGTTAT | -0.26 |
| ATGCTCACGTGGTTCG | 0.23 |
| TCACGCACGTGGGGTT | -0.24 |
| CGTTTCACGTGTGTGT | 0.24 |
| TCAATCACGTGATGTG | 0.28 |
| GGGTACACGTGAATGG | 0.38 |
| GGGGGCACGTGATTGT | 0.1 |
| TGGTCCACGTGGTAAG | 0.1 |
| CGCGGCACGTGGTAGG | -0.14 |
| GTTTCCACGTGTGGTC | 0.15 |
| TGGTTCACGTGATGCA | 0.13 |
| TGAGCCACGTGATTGG | 0.16 |
| GAATGCACGTGGCTTG | -0.12 |
| AGGGTCACGTGGGCGC | 0.02 |
| GTATGCACGTGGGGTG | -0.08 |
| CTGGACACGTGGGTAT | -0.16 |
| AGGATCACGTGCTGTG | 0.23 |
| AGAGTCACGTGCTAGG | -0.01 |
| TGAATCACGTGTGTAA | 0.3 |

| Sequence | relative binding free energy [kcal/mol] |
| --- | --- |
| TTGTTCACGTGCATTG | 0.19 |
| CGGGGCACGTGGGTGT | -0.18 |
| GGTTACACGTGGTGGT | 0.09 |
| GTGGTCACGTGTATCT | 0.02 |
| TTTTACACGTGAAAGT | 0.38 |
| TTATTCACGTGTTAAC | 0.2 |
| TTTTGCACGTGTAGGG | -0.02 |
| GTTAGCACGTGAGGTT | 0.18 |
| TATGCCACGTGTTTGT | -0.11 |
| TTTATCACGTGGTTGC | 0.16 |
| ATGGTCACGTGACAGT | 0.11 |
| TAGGTCACGTGGGTCT | -0.13 |
| CTGTGCACGTGTGTCT | 0.01 |
| TGTGTCACGTGGATGG | -0.01 |
| CAAAACACGTGGGGGG | -0.08 |
| CAAGGCACGTGGTGAT | -0.13 |
| GGCGTCACGTGGGCGA | 0.09 |
| ATGCGCACGTGAGGGT | 0.1 |
| AATCTCACGTGGTATT | 0.15 |
| GGGGGCACGTGGGGTG | -0.16 |
| TTGATCACGTGTTGGC | 0.13 |
| GGATGCACGTGTATAT | 0.11 |
| GTGAACACGTGGTCGT | -0.01 |

| Sequence | relative binding free energy [kcal/mol] |
| --- | --- |
| GGAATCACGTGTTTGA | 0.19 |
| GTGTACACGTGGCGTA | -0.04 |
| TTGTACACGTGGGGTG | 0 |
| TGGGTCACGTGTTTCT | 0.25 |
| TATGACACGTGGGGCG | -0.12 |
| GTTCTCACGTGGGTTA | 0.08 |
| TTAGGCACGTGGGGGA | -0.17 |
| GAGGGCACGTGGCGGC | -0.27 |
| TTAGTCACGTGTCGGC | 0.1 |
| TTGAGCACGTGGGTCC | -0.22 |
| GGATACACGTGTGGGG | 0.22 |
| ATGTACACGTGTTTGG | 0.01 |
| TTCCTCACGTGTGTTG | 0.09 |
| AGGCTCACGTGGTGTG | 0.13 |
| GCGTACACGTGGGTTG | -0.12 |
| GATAGCACGTGTATTG | -0.09 |
| AAATGCACGTGGGATG | -0.07 |
| AGGAACACGTGTTAGT | -0.06 |
| GTCGTCACGTGTTGCG | 0.19 |
| TTAATCACGTGAATGG | 0.3 |
| TTCGACACGTGGATTT | 0.14 |
| AGGTTCACGTGAGGTC | 0.28 |
| TTTAGCACGTGGTGAA | -0.18 |

| Sequence | relative binding free energy [kcal/mol] |
| --- | --- |
| GTAGCCACGTGTTGTA | -0.05 |
| TCGAGCACGTGAGGTT | 0.24 |
| TACGGCACGTGGGCGG | -0.25 |
| TGCGCCACGTGGGTGA | -0.3 |
| GTCTACACGTGGTCTG | 0.15 |
| GATGTCACGTGACTGT | 0.29 |
| ATACGCACGTGTTTGA | -0.16 |
| TCGTGCACGTGTCGTT | -0.04 |
| GGTGGCACGTGGCCTT | -0.07 |
| ATGGTCACGTGTTGTG | 0.13 |
| CATATCACGTGGATGT | 0.1 |
| AAATCCACGTGGGGGT | -0.22 |
| TTGTCCACGTGTTTTA | 0.14 |
| GGTAGCACGTGGATTT | 0.12 |
| ATTGGCACGTGAGCGA | 0.06 |
| AATGGCACGTGTGCAT | -0.05 |
| TTTTTCACGTGTCGTA | 0.21 |
| CTATTCACGTGGAGTT | 0.27 |
| CTTTTCACGTGTAGGA | 0.43 |
| GGCTGCACGTGTAGGA | 0.07 |
| TGGGCCACGTGTAGGT | -0.03 |
| TTTTCCACGTGTCGGT | 0.15 |
| AAGTACACGTGAAGGG | 0.2 |

| Sequence | relative binding free energy [kcal/mol] |
| --- | --- |
| TAGAGCACGTGATTTT | 0.13 |
| CTTGGCACGTGTTCGA | -0.04 |
| GTGCGCACGTGGTGTG | -0.17 |
| TGGGCCACGTGTGCGT | -0.29 |
| AGAGGCACGTGGAGGG | -0.14 |
| CATGTCACGTGTGTCG | 0.13 |
| TGGTGCACGTGATTAG | 0.12 |
| ATTGTCACGTGAAATA | 0.3 |
| TGGTGCACGTGATGAA | -0.01 |
| ACGACCACGTGGGGGG | -0.12 |
| GCTTTCACGTGCTTTG | 0.2 |
| GAGGGCACGTGGTTTT | -0.07 |
| TTATCCACGTGGGGCT | -0.06 |
| GGCGTCACGTGTGTGA | 0.1 |
| TGAATCACGTGGTGAT | 0.15 |
| CTTGCCACGTGGTGTT | -0.12 |
| TTAAGCACGTGTTGGA | -0.1 |
| GCTGACACGTGTTGGT | 0.08 |
| AGTTTCACGTGCGGTC | 0.34 |
| GGGGTCACGTGAGTTG | 0.26 |
| CCGGGCACGTGGCTGG | -0.21 |
| ATAGCCACGTGGTTGT | -0.18 |
| GCAGTCACGTGGTAGT | -0.04 |
